“And” between values parts separate entries of the source, which are not always exact repeats. Equal entries are not always repeated. Out of some 420,000 compounds screened, about 50,000 (12%) were called active. Inconclusive results, whose numbers are uncertain, are shown with a selection of clear calls. The call rests on the fitted dose curve; in most records, active means well fitted inhibition curve with a large enough effect; inconclusive means small, poorly fitted or top-dose-only effect; inactive means flat fitted curve, though single readings scatter. Potencies of inconclusive entries are doubtful fits and often do not repeat.
Experiment: qHTS for Inhibitors of human tyrosyl-DNA phosphodiesterase 1 (TDP1): qHTS in cells in presence of CPT; further: nearly all actives have a fitted effect of over 55% in size
Settings: chicken DT40 Tdp1-/-;hTDP1 cells + 20 nM CPT, ATP luminescence, 48 h; activity change, negative = growth inhibition: at 46.2 µM (top of the series)
In short: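 Chicken DT40 Tdp1-/- cells stably complemented with human TDP1 were seeded at 400 cells/well in medium containing 20 nM camptothecin, exposed to pin-transferred compounds, and grown at 37 °C for at least 48 hr. Viability was read as ATP luminescence.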
In the case of CC(Oc1ccccc1)C(=O)Nc1nnc(S(=O)(=O)N2CCCCCC2)s1 (configuration not stated), the Potency is reported as inconclusive: 29.1 µM [inhibitor, single point].
For COc1ccc(C(=O)Nc2nnc(S(=O)(=O)N3CCN(c4ccc(C)cc4)CC3)s2)cc1, the “activity change, negative = growth inhibition” value was inactive: 2.77%.
With Cc1ccccc1OCC(=O)Nc1nc(-c2ccncc2)cs1 the Potency was active: 20.6 µM.
For COc1ccccc1-c1c(C#N)c(N)nc2c1CCc1ccccc1-2, the Potency was active: 6.51 µM.
For COc1ccc(OCC(=O)NCc2ccc(Cl)cc2)cc1, the “activity change, negative = growth inhibition” value was inactive: -4.57%.
In the case of CC1CCc2nc(NC(=O)c3ccco3)sc2C1 (configuration not stated), the Potency is reported as inconclusive: 18.4 µM [inhibitor, partial curve, poor fit].
In the case of Cc1ccc(NC(=O)c2ccc(COc3ccccc3[N+](=O)[O-])o2)nc1, the Potency is reported as inconclusive: 29.1 µM [inhibitor, single point].
For O=C(N/N=C/c1cc(Br)cc(Br)c1O)c1ccncc1, the Potency was active: 2.59 µM.
For Cc1ccc(Oc2nc3c(c(=O)n(Cc4ccccc4Cl)c(=O)n3C)n2C)cc1C, the Potency was inconclusive: 29.1 µM [inhibitor, single point].
In the case of O=C(Cn1c(=O)cnc2ccccc21)Nc1cccc(S(=O)(=O)N2CCCCC2)c1, the Potency is reported as inconclusive: 29.1 µM [inhibitor, single point].
In the case of CCC(=O)Nc1ccc(S(=O)(=O)N2CCc3ccccc32)cc1, the Potency is reported as inconclusive: 25.9 µM [inhibitor, single point].
For COc1ccc(OC)c(S(=O)(=O)Nc2ccc3oc(C)c(C(C)=O)c3c2)c1, the Potency was active: 16.4 µM.
In the case of Cc1ccc(NC(=O)CCNC(=O)c2ccc(Br)cc2)cc1S(=O)(=O)N1CCOCC1, the “activity change, negative = growth inhibition” value is reported as inactive: -5.88%.
In the case of OCCN(CCO)c1ccc(C(c2ccc(Cl)cc2)c2ccc(N(CCO)CCO)cc2Cl)c(Cl)c1, the Potency is reported as inconclusive: 20.6 µM [inhibitor, single point].
For COc1ccc(/C=C/C(=O)N2CCC(c3nc4ccccc4o3)CC2)cc1, the Potency was inconclusive: 25.9 µM [inhibitor, single point].
In the case of CCC(CC)C(=O)N(C)c1c(C)nc2c(OCc3ccccc3OC)cccn12, the Potency is reported as inconclusive: 29.1 µM [inhibitor, single point].
With COc1ccc(C(=O)N/C(=C\c2cn(C)c3ccccc23)C(=O)NCCCn2ccnc2)cc1OC the “activity change, negative = growth inhibition” value was inactive: 5.23%.
For O=c1c(CCc2ccccc2)nc2cnc(Oc3ccccc3)nc2n1C1CC1, the Potency was inconclusive: 16.4 µM [inhibitor, partial curve, poor fit].
In the case of Cc1ccc(OCC(=O)OCC(=O)N2c3ccccc3CC2C)cc1C (configuration not stated), the “activity change, negative = growth inhibition” value is reported as inactive: -0.934%.
With Oc1cnc2ccccc2c1CN1CCOCC1 the Potency was inconclusive: 23.1 µM [inhibitor, single point].
For CCOc1ccc(C(=O)Nc2ccc(C(=O)OCc3cc(=O)n4nc(CC)sc4n3)cc2)cc1, the “activity change, negative = growth inhibition” value was inactive: -10.7%.
With COC(=O)c1ccc(NC(=O)N2CCC(CN3CCc4ccccc4C3)CC2)cc1 the Potency was inconclusive: 25.9 µM [inhibitor, single point].
With O=C(N/N=C/C(Br)=C/c1ccccc1)c1n[nH]c2c1CCC2 the Potency was active: 2.59 µM.
For CCN(C(=O)C1CCN(S(=O)(=O)c2cccc3nonc23)CC1)c1ccccc1, the Potency was inconclusive: 18.4 µM [inhibitor, single point].
In the case of Cc1ccc(C(=O)Oc2ccc(C(=S)N3CCOCC3)cc2)cc1, the “activity change, negative = growth inhibition” value is reported as inactive: -14.9%.
In the case of COC(=O)c1ccc2nc(NC(=O)CCS(=O)(=O)c3ccccc3)sc2c1, the Potency is reported as active: 8.2 µM.
With CN1C(=O)C(O)(C2CCCCCC2=O)c2ccccc21 (configuration not stated) the “activity change, negative = growth inhibition” value was inactive: 11.8%.
For O=C(NNC(=O)C1C2C=CC(C2)C1C(=O)O)c1ccccc1O (configuration not stated), the “activity change, negative = growth inhibition” value was inactive: 2.35%.
With CC(Sc1nnc(Nc2ccccc2)s1)C(=O)NC1CCCc2ccccc21 (configuration not stated) the Potency was inconclusive: 18.4 µM [inhibitor, single point].
In the case of N#Cc1nc(COc2ccccc2Cl)oc1NCc1cccnc1, the Potency is reported as inconclusive: 23.1 µM [inhibitor, single point].
With CC1(Cc2ccc(F)cc2)C(=O)Nc2ccc(-c3cccnc3)cc21 (configuration not stated) the Potency was active: 23.1 µM.
With Cc1ccc(S(=O)(=O)N2CCCc3cc(NC(=O)c4ccc(F)c(F)c4)ccc32)cc1 the Potency was inconclusive: 25.9 µM [inhibitor, single point].
For COc1cc(SC)ccc1C(=O)Nc1cccc(S(=O)(=O)NC2=NCCCCC2)c1, the Potency was active: 20.6 µM.
In the case of COc1ccc(CCc2nc3ccccc3n2C(CCc2ccccc2)c2nc3ccccc3[nH]2)cc1 (configuration not stated), the Potency is reported as inconclusive: 29.1 µM [inhibitor, single point].
For CCS(=O)(=O)c1nc(S(=O)(=O)c2ccc(C)cc2)c(NCc2ccc(Cl)cc2)s1, the Potency was inconclusive: 18.4 µM [inhibitor, single point].
In the case of CCOc1ccc(N(CC)S(=O)(=O)N2CCCC(C(=O)Nc3ccc(NC(C)=O)cc3)C2)cc1 (configuration not stated), the Potency is reported as inconclusive: 16.4 µM [inhibitor, single point].
With O=C(NC1CCCC1)C(=O)c1c[nH]c2ccccc12 the “activity change, negative = growth inhibition” value was inactive: -2.79%.
With O=C(c1ccc(N2CCCC2)c([N+](=O)[O-])c1)N1CCN(S(=O)(=O)c2ccc(Cl)cc2)CC1 the Potency was inconclusive: 16.4 µM [inhibitor, single point].
With COc1cccc2c1cc1c(=O)n(CC(=O)NCCCN3CCCCC3)nc(C)n12 the “activity change, negative = growth inhibition” value was inactive: 14.5%.
With CC(=O)Oc1ccc(C(c2ccc(OC(C)=O)cc2)c2ccccn2)cc1 the Potency was inconclusive: 18.4 µM [inhibitor, single point] and inconclusive: 33.5 µM [inhibitor, single point].
With O=C(COc1ccc2oc3c(c2c1)CCCC3)Nc1ccc(Cl)cc1 the Potency was inconclusive: 11.6 µM [inhibitor, partial curve].
With O=C(C[C@@H]1C/C=C\C[C@H](NC(=O)OCC2c3ccccc3-c3ccccc32)C(=O)OC[C@@H]2CCCN2C1=O)NCCO the Potency was active: 4.61 µM.
In the case of Cc1ccccc1/C=C\c1nc2ccccc2c(=O)n1Cc1ccccc1, the Potency is reported as inconclusive: 18.4 µM [inhibitor, single point].
With CC(=O)c1c(C(C)=O)c(C)n(C(c2ccccc2)c2ccccc2)c1C the Potency was inconclusive: 29.1 µM [inhibitor, single point].
For C[C@H](CO)N1C[C@H](C)[C@@H](CN(C)C(=O)NC2CCCCC2)Oc2c(NS(=O)(=O)c3ccc(F)cc3)cccc2C1=O, the “activity change, negative = growth inhibition” value was inactive: -23.2%.
For O=c1[nH]cnc2c1C(c1ccc(Cl)cc1)c1c(nc[nH]c1=O)O2, the “activity change, negative = growth inhibition” value was inactive: 22.5%.
In the case of Cc1cc(N2O[C@H]3C=C[C@@H]2C3)no1, the “activity change, negative = growth inhibition” value is reported as inactive: 9.56%.
In the case of COc1cccc(C(=O)Nc2cc(-c3ccccc3)nn2-c2ccccc2)c1, the Potency is reported as inconclusive: 18.4 µM [inhibitor, partial curve, poor fit].
For COc1ccc(CCN(C)Cc2ccc(OC)c(OCc3ccccc3)c2)cc1OC, the Potency was inconclusive: 18.4 µM [inhibitor, single point].
For COc1ccccc1Cn1c(CNS(=O)(=O)c2ccc(CC(C)C)cc2)nc2cccnc21, the Potency was active: 20.6 µM.
For COc1ccc(CNC(=O)CSc2cc(=O)n(C)c3ccccc23)cc1, the Potency was inconclusive: 16.4 µM [inhibitor, single point].
In the case of O=C(NCC1CCC2(CCN(Cc3cnn(-c4ccc(F)cc4)c3)CC2)O1)c1ccccc1 (configuration not stated), the “activity change, negative = growth inhibition” value is reported as inactive: -8.81%.
With O=C(NCc1cccc(F)c1)c1cccc2c1C(=O)c1ccc(N3CCOCC3)cc1S2(=O)=O the Potency was inconclusive: 2.06 µM [inhibitor, partial curve, poor fit].
In the case of CCc1cc2c(=O)c(-c3nc4ccccc4n3C)c(C)oc2c(CN2CCCCC2)c1O, the Potency is reported as active: 25.9 µM.
With CCN(CC)S(=O)(=O)c1cccc(C(=O)Oc2cccc(NC(=O)c3cccs3)c2)c1 the Potency was inconclusive: 29.1 µM [inhibitor, single point].
With O=C(C1CCCN(S(=O)(=O)c2cccc3nsnc23)C1)N1CCc2ccccc2C1 (configuration not stated) the Potency was inconclusive: 16.4 µM [inhibitor, single point].
In the case of COc1ccccc1NS(=O)(=O)c1ccc(C)c(C(=O)NCC(c2ccco2)N(C)C)c1 (configuration not stated), the “activity change, negative = growth inhibition” value is reported as inactive: 12.3%.
In the case of CCC(C(=O)NCCC1=CCCCC1)n1nc(C)c2c(C)n(-c3ccccc3)nc2c1=O (configuration not stated), the Potency is reported as inconclusive: 29.1 µM [inhibitor, single point].
In the case of CCOc1ccc(NC(=O)Cn2cc(C(=O)c3ccc(OCC)cc3)c(=O)c3cc4c(cc32)OCCO4)cc1, the Potency is reported as active: 13 µM.
For CC(=O)c1ccc(NC(=O)C2CCCN(S(=O)(=O)c3ccc(-n4cnnn4)cc3)C2)cc1 (configuration not stated), the Potency was inconclusive: 16.4 µM [inhibitor, single point].
For O=C(Nc1ccccc1)C12CC1/C(=N\O)c1ccccc1O2 (configuration not stated), the Potency was inconclusive: 29.1 µM [inhibitor, single point].
With COC(=O)Cc1c(C)c2cc3c(c(C)c2oc1=O)OCN(CCc1ccc(F)cc1)C3 the Potency was inconclusive: 18.4 µM [inhibitor, single point].
For N#Cc1cc2c(nc1SCC(O)CS(=O)(=O)Cc1ccccc1)CCCC2 (configuration not stated), the Potency was inconclusive: 29.1 µM [inhibitor, single point].
For CCc1ccc(NC(=O)CC2C(=O)N(c3ccc(C)cc3)C(=O)N2CCc2ccncc2)cc1 (configuration not stated), the Potency was inconclusive: 20.6 µM [inhibitor, partial curve] and inconclusive: 13 µM [inhibitor, partial curve, poor fit].
For COc1cccc(/C=N/N(C)C2=NS(=O)(=O)c3ccccc32)c1O, the Potency was inconclusive: 29.1 µM [inhibitor, single point].
For CCN(CC)c1ccc(NC(=O)c2ccc3c(c2)OCO3)c(C)c1, the Potency was inconclusive: 4.11 µM [inhibitor, single point].
In the case of CCOc1cc(CNCc2cccs2)ccc1OCC(=O)NC(C)(C)C, the Potency is reported as inconclusive: 29.1 µM [inhibitor, single point].

Reference: PubChem BioAssay AID686979 (National Center for Advancing Translational Sciences (NCATS), 2013)
On the % scale 0 is the no-effect control and ±100 the full control effect; potency means the concentration at half of the fitted maximal effect; tags describe the fitted curve by direction and shape.
